# Changes are numbered by the printed parent chain; changes in the protein carry UniProt numbers. The list shows a part of the results.
# T1: RBFOX1 RRM (Homo sapiens, UniProt Q9NWB1 109-208)
# T1 sequence: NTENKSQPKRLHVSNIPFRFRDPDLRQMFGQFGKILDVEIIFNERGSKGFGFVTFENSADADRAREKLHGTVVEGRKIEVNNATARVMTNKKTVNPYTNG
# B1: CAAUGCG (DNA:RNA)
# RNA: GGGAGACCGGAAUUCAGAUUGUCCCAAUGCGUUAAAUCCCGUCGUAGCCACCA
# DNA 1: CAATCTGAATTCCGGTCTCCC
# DNA 2: TGGTGGCTACGACGGGATT
# B2: GCGUCAC (DNA:RNA)
# RNA: B1 RNA with C25G, A26C, A27G, G29C, C30A, G31C
# DNA 1: CAATCTGAATTCCGGTCTCCC
# DNA 2: TGGTGGCTACGACGGGATT
# B3: CAAAGUG (DNA:RNA)
# RNA: B1 RNA with U28A, C30U
# DNA 1: CAATCTGAATTCCGGTCTCCC
# DNA 2: TGGTGGCTACGACGGGATT
# B4: AUUACUC (DNA:RNA)
# RNA: GGGAGACCGGAAUUCAGAUUGUCCAUUACUCUUAAAUCCCGUCGUAGCCACCA
# DNA 1: CAATCTGAATTCCGGTCTCCC
# DNA 2: TGGTGGCTACGACGGGATT
# B5: AUAAUCU (DNA:RNA)
# RNA: B4 RNA with U27A, C29U, U30C, C31U
# DNA 1: CAATCTGAATTCCGGTCTCCC
# DNA 2: TGGTGGCTACGACGGGATT
# B6: UUAUCGC (DNA:RNA)
# RNA: B4 RNA with A25U, U27A, A28U, U30G
# DNA 1: CAATCTGAATTCCGGTCTCCC
# DNA 2: TGGTGGCTACGACGGGATT
# B7: CCGCGGU (DNA:RNA)
# RNA: B1 RNA with A26C, A27G, U28C, C30G, G31U
# DNA 1: CAATCTGAATTCCGGTCTCCC
# DNA 2: TGGTGGCTACGACGGGATT
# B8: CGGCACA (DNA:RNA)
# RNA: B1 RNA with A26G, A27G, U28C, G29A, G31A
# DNA 1: CAATCTGAATTCCGGTCTCCC
# DNA 2: TGGTGGCTACGACGGGATT
# B9: GGUGGAG (DNA:RNA)
# RNA: B1 RNA with C25G, A26G, A27U, U28G, C30A
# DNA 1: CAATCTGAATTCCGGTCTCCC
# DNA 2: TGGTGGCTACGACGGGATT
# B10: UAUUCUU (DNA:RNA)
# RNA: B4 RNA with A25U, U26A, A28U, C31U
# DNA 1: CAATCTGAATTCCGGTCTCCC
# DNA 2: TGGTGGCTACGACGGGATT
# B11: UUGCAAU (DNA:RNA)
# RNA: B4 RNA with A25U, U27G, A28C, C29A, U30A, C31U
# DNA 1: CAATCTGAATTCCGGTCTCCC
# DNA 2: TGGTGGCTACGACGGGATT
# B12: CACCCAG (DNA:RNA)
# RNA: B1 RNA with A27C, U28C, G29C, C30A
# DNA 1: CAATCTGAATTCCGGTCTCCC
# DNA 2: TGGTGGCTACGACGGGATT
# B13: AGUGUAA (DNA:RNA)
# RNA: B4 RNA with U26G, A28G, C29U, U30A, C31A
# DNA 1: CAATCTGAATTCCGGTCTCCC
# DNA 2: TGGTGGCTACGACGGGATT
# B14: AGCUCAG (DNA:RNA)
# RNA: B4 RNA with U26G, U27C, A28U, U30A, C31G
# DNA 1: CAATCTGAATTCCGGTCTCCC
# DNA 2: TGGTGGCTACGACGGGATT
# B15: ACACUUC (DNA:RNA)
# RNA: B4 RNA with U26C, U27A, A28C, C29U
# DNA 1: CAATCTGAATTCCGGTCTCCC
# DNA 2: TGGTGGCTACGACGGGATT
# B16: GUCGACC (DNA:RNA)
# RNA: B4 RNA with A25G, U27C, A28G, C29A, U30C
# DNA 1: CAATCTGAATTCCGGTCTCCC
# DNA 2: TGGTGGCTACGACGGGATT
# B17: GCGCCCC (DNA:RNA)
# RNA: B4 RNA with A25G, U26C, U27G, A28C, U30C
# DNA 1: CAATCTGAATTCCGGTCTCCC
# DNA 2: TGGTGGCTACGACGGGATT
# B18: UGCUUAC (DNA:RNA)
# RNA: B4 RNA with A25U, U26G, U27C, A28U, C29U, U30A
# DNA 1: CAATCTGAATTCCGGTCTCCC
# DNA 2: TGGTGGCTACGACGGGATT
# B19: AAUAAGU (DNA:RNA)
# RNA: B4 RNA with U26A, C29A, U30G, C31U
# DNA 1: CAATCTGAATTCCGGTCTCCC
# DNA 2: TGGTGGCTACGACGGGATT
# B20: GAUUGGG (DNA:RNA)
# RNA: B1 RNA with C25G, A27U, C30G
# DNA 1: CAATCTGAATTCCGGTCTCCC
# DNA 2: TGGTGGCTACGACGGGATT
# B21: CGAGGUG (DNA:RNA)
# RNA: B1 RNA with A26G, U28G, C30U
# DNA 1: CAATCTGAATTCCGGTCTCCC
# DNA 2: TGGTGGCTACGACGGGATT
# B22: AGUAAAC (DNA:RNA)
# RNA: B4 RNA with U26G, C29A, U30A
# DNA 1: CAATCTGAATTCCGGTCTCCC
# DNA 2: TGGTGGCTACGACGGGATT
# B23: GCUACAU (DNA:RNA)
# RNA: B4 RNA with A25G, U26C, U30A, C31U
# DNA 1: CAATCTGAATTCCGGTCTCCC
# DNA 2: TGGTGGCTACGACGGGATT
# B24: CUGCAGG (DNA:RNA)
# RNA: B1 RNA with A26U, A27G, U28C, G29A, C30G
# DNA 1: CAATCTGAATTCCGGTCTCCC
# DNA 2: TGGTGGCTACGACGGGATT
# B25: GGCUAGG (DNA:RNA)
# RNA: B1 RNA with C25G, A26G, A27C, G29A, C30G
# DNA 1: CAATCTGAATTCCGGTCTCCC
# DNA 2: TGGTGGCTACGACGGGATT
# B26: UCGGCGA (DNA:RNA)
# RNA: B4 RNA with A25U, U26C, U27G, A28G, U30G, C31A
# DNA 1: CAATCTGAATTCCGGTCTCCC
# DNA 2: TGGTGGCTACGACGGGATT
# B27: UAGCGUG (DNA:RNA)
# RNA: B1 RNA with C25U, A27G, U28C, C30U
# DNA 1: CAATCTGAATTCCGGTCTCCC
# DNA 2: TGGTGGCTACGACGGGATT
# B28: AUCUGAA (DNA:RNA)
# RNA: B4 RNA with U27C, A28U, C29G, U30A, C31A
# DNA 1: CAATCTGAATTCCGGTCTCCC
# DNA 2: TGGTGGCTACGACGGGATT
# B29: GCUAGGG (DNA:RNA)
# RNA: B4 RNA with A25G, U26C, C29G, U30G, C31G
# DNA 1: CAATCTGAATTCCGGTCTCCC
# DNA 2: TGGTGGCTACGACGGGATT
# B30: UCAGAGG (DNA:RNA)
# RNA: B1 RNA with C25U, A26C, U28G, G29A, C30G
# DNA 1: CAATCTGAATTCCGGTCTCCC
# DNA 2: TGGTGGCTACGACGGGATT
# B31: CAGAGGG (DNA:RNA)
# RNA: B1 RNA with A27G, U28A, C30G
# DNA 1: CAATCTGAATTCCGGTCTCCC
# DNA 2: TGGTGGCTACGACGGGATT
# Molecular target: T1, RBFOX1 RRM
# Assay: EMSA; HiTS-Eq, 1 nM pool, 10 min; buffer printed only for the single-RNA assays: 10 mM Tris pH 7.5, 150 mM NaCl, 3.4 mM EDTA, 0.001% NP-40, 30 C
# Details: tags: His6 N-terminal (pET28a); label: 5' 32P
# Procedure, shortened: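 Relative association constants, normalised to the cognate motif, were derived by comparing read counts of each RNA species with those of the control reaction. The RNA sequenced was the free fraction, separated by 8% native PAGE after a 10 min equilibration in 50 µL of 1 nM 5′-radiolabelled RNA (7 randomized nucleotides) with increasing concentrations of purified wild-type or mutant RbFox RRM.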
row,Binder,binding signal
1,B1,0.00919 KA relative to UGCAUGU
2,B2,0.00726 KA relative to UGCAUGU
3,B3,0.00792 KA relative to UGCAUGU
4,B4,0.000413 KA relative to UGCAUGU
5,B5,0.000154 KA relative to UGCAUGU
6,B6,0.0112 KA relative to UGCAUGU
7,B7,0.0132 KA relative to UGCAUGU
8,B8,0.0095 KA relative to UGCAUGU
9,B9,0.0114 KA relative to UGCAUGU
10,B10,0.0097 KA relative to UGCAUGU
11,B11,0.0162 KA relative to UGCAUGU
12,B12,0.00179 KA relative to UGCAUGU
13,B13,0.00945 KA relative to UGCAUGU
14,B14,0.0097 KA relative to UGCAUGU
15,B15,0.00103 KA relative to UGCAUGU
16,B16,0.0106 KA relative to UGCAUGU

row,Binder,binding signal
1,B17,0.00808 KA relative to UGCAUGU
2,B18,0.0169 KA relative to UGCAUGU
3,B19,0.0036 KA relative to UGCAUGU
4,B20,0.0116 KA relative to UGCAUGU
5,B21,0.0167 KA relative to UGCAUGU
6,B22,0.00682 KA relative to UGCAUGU
7,B23,0.00711 KA relative to UGCAUGU
8,B24,0.0186 KA relative to UGCAUGU
9,B25,0.0209 KA relative to UGCAUGU
10,B26,0.0175 KA relative to UGCAUGU
11,B27,0.0281 KA relative to UGCAUGU
12,B28,0.0149 KA relative to UGCAUGU
13,B29,0.00935 KA relative to UGCAUGU
14,B30,0.00775 KA relative to UGCAUGU
15,B31,0.00485 KA relative to UGCAUGU
